# In all, about 310,000 compounds went through this assay and about 2,200 (0.71%) showed an effect of 50% or more. Effects have a minus sign here. The list shows a part of the results. Where a SMILES comes first, the peptide text is derived from it. [ ]: non-standard residue; d: D form. The star is where a group is joined. ξ: configuration not given here. Boc = CC(C)(C)OC(=O)*; ξP = O=C(O)C1CCCN1
# Target: human ether-à-go-go-related gene (hERG) potassium channel (human, UniProt Q12809)
# Experiment: primary screen, population patch clamp on CHO cells stably expressing hERG
# Chain of human ether-à-go-go-related gene (hERG) potassium channel (Q12809 whole entry, looked up): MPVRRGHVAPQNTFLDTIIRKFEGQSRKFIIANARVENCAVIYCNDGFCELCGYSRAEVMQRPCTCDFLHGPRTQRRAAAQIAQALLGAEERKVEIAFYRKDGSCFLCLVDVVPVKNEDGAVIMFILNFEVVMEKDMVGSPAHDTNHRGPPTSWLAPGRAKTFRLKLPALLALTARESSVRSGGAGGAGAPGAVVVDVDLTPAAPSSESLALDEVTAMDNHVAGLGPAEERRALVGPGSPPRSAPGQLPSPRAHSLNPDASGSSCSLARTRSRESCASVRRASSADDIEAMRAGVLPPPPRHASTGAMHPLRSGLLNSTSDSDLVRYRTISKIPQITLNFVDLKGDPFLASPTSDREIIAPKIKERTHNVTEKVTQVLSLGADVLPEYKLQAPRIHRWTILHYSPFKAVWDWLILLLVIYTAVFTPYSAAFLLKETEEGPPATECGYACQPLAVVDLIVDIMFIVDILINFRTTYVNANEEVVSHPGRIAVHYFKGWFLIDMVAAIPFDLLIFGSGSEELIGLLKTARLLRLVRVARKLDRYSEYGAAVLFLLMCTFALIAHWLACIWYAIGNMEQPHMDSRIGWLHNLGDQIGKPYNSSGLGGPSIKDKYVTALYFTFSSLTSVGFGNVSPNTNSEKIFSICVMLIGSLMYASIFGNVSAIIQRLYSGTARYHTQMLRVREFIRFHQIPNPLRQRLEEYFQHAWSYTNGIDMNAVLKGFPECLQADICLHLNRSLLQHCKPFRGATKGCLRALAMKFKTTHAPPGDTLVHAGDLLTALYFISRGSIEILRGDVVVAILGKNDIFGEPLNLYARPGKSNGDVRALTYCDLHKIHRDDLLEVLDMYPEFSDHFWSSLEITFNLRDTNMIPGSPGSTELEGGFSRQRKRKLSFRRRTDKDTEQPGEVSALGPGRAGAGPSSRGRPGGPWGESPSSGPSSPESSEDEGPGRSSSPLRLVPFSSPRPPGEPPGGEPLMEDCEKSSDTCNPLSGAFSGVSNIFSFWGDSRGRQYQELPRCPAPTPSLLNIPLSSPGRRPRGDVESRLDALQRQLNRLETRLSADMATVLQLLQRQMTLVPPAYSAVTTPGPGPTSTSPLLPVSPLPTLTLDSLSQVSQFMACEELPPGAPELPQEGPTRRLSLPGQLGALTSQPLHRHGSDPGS
row,SMILES,"hERG current change (%, negative = inhibition) at 1uM"
1,C/C(O)=c1/cnc2nc3ccccc3n2c1=O,11%
2,Cc1ccnc2nc(C(=O)NC3CCCc4ccccc43)nn12 (stereo not drawn),11.4%
3,CCOC(=O)C1(Cc2cccc(OC)c2)CCN(Cc2cccc(O)c2)CC1,-9.46%
4,CC(C)NC(=O)CN1C(=O)C(C)(C)Oc2ccc(C(=O)NC3CCCCC3)cc21,13.2%
5,CCOCCCNc1nc2c(-c3ccccc3)nnn2c2ccccc12,19.9%
6,O=C(COC(=O)/C=C/c1cccc(Br)c1)Nc1cccc(S(=O)(=O)NC2=NCCC2)c1,4.13%
7,Cc1cccc(-n2ncc3c2CCCC3NC(=O)Cn2cccn2)c1C (stereo not drawn),6.35%
8,COc1ccc([N+](=O)[O-])cc1NC(=O)C(C)OC(=O)C1CC(=O)N(Cc2ccco2)C1 (stereo not drawn),-6.39%
9,CC1CCCCN1C(=O)c1cc(-c2ccc(Cl)c(Cl)c2)on1 (stereo not drawn),-17%
10,Cc1nc(-c2nnc(SCC(=O)Nc3cc(C(F)(F)F)cc(C(F)(F)F)c3)n2C)cs1,16%
11,O=c1c2ccccc2nnn1CSc1nc2cc(Cl)ccc2c(=O)n1Cc1ccco1,-4.83%
12,O=C(Cn1cnc2c(cnn2-c2ccccc2Cl)c1=O)N1CCc2ccccc21,6.63%
13,Cc1cc(C)c(S(=O)(=O)Nc2nnc(CC(C)C)s2)c(C)c1,14.5%
14,Cc1noc(C)c1CSc1ncnc2sc(C)c(C)c12,10.1%
15,Cc1ccc(SCCN2CCC(O)CCC2=O)cc1 (stereo not drawn),12.9%
16,CCOC(=O)C1CCCN(C(=O)c2ccc(Cl)c(S(=O)(=O)N3CCCCC3)c2)C1 (stereo not drawn),4.49%
17,O=C(O)CCN(CC(=O)c1ccc(Cl)cc1)S(=O)(=O)c1ccc([N+](=O)[O-])cc1,-5.86%
18,C=CCn1c(SCc2ccc(Br)cc2F)nc2cc(C(=O)O)ccc2c1=O,20.6%
19,CCOc1ccc(S(=O)(=O)NC(C)C(=O)NCc2ccccn2)cc1 (stereo not drawn),14.4%
20,CC1CC(C)CN(C(=O)CSc2nc3ccsc3c(=O)n2Cc2ccccn2)C1 (stereo not drawn),-1.17%
21,O=c1cc(C(F)(F)F)[nH]c2ccccc12,8.61%
22,Cc1ccc(S(=O)(=O)NC(=O)Nc2cc(C)no2)cc1,7.78%

row,SMILES,"hERG current change (%, negative = inhibition) at 1uM"
1,COc1cc(OC)cc(-c2nc3nc(C)c(CCC(=O)NCC(OC)OC)c(C)n3n2)c1,5.9%
2,O=C(CN(Cc1ccco1)C(=O)CNS(=O)(=O)c1ccc(F)cc1)NCc1ccco1,-2.72%
3,Cc1ccc(C)c(Cn2nnc3c(=O)[nH]c(C(=O)Nc4ccc(F)cc4)nc32)c1,3.15%
4,CN(C(=O)CSc1nnc(-c2ccccc2F)n1N)C1CCCCC1,6.18%
5,Cc1cc(=O)[nH]c2ccc(S(=O)(=O)NC3CCCCC3)cc12,7.42%
6,CCC(=O)Oc1ccc(C(=O)Nc2cccc(C(=O)NCC(C)C)c2)cc1,7.7%
7,OC(COCC(F)(F)C(F)(F)C(F)(F)C(F)F)Cn1c2ccc(Cl)cc2c2cc(Cl)ccc21 (stereo not drawn),3.78%
8,CC12CCC(=O)N1C(C(=O)Nc1cc(C(F)(F)F)ccc1N1CCOCC1)CS2 (stereo not drawn),10.5%
9,COc1c2ccoc2c(OC[C@@H](O)C(C)(C)O)c2oc(=O)ccc12,5.59%
10,Cn1c(CNC(=O)Nc2cccc(Cl)c2)nnc1SCc1ccccc1,0.6%
11,O=C(CN1CCC(C(=O)c2ccc3c(c2)OCCO3)CC1)NC1CCCC1,11.1%
12,Clc1nccc(N2CCN(c3ccccc3Cl)CC2)n1,4.84%
13,Cc1ccc(SCC(=O)NCCN2C(=O)CSC2=O)cc1C,8%
14,S=C(Nc1ccc(Cl)cc1)NC1CC2CCCC(C1)N2C1CC1 (stereo not drawn),-6.76%
15,CCOc1cc2[nH]c(=S)n(Cc3ccc(C(=O)N4CCN(C)CC4)cc3)c(=O)c2cc1OCC,6.41%
16,COC(=O)CNC(=O)C1CCCN1C(=O)CNC(=O)OC(C)(C)C (stereo not drawn) (Boc-Gly-[ξP]-Gly-OMe),9.5%
17,CC(=O)Nc1ccc(N2C(=O)c3cccc(NC(C)=O)c3C2=O)cc1,17.6%
18,COc1ccccc1Nc1ccc([N+](=O)[O-])cn1,8.99%
19,Cc1sc2ncnc(SCC(=O)N3CCCC(C(N)=O)C3)c2c1C (stereo not drawn),13.7%
20,CCN1CCN(C(c2cccnc2)c2c(NC(=O)c3ccco3)sc(C)c2C)CC1 (stereo not drawn),-13.7%
21,CC(C)CNC(=S)Nc1ccc(F)cc1,17.7%
22,Cc1ccc(C)c(CSc2nnc(CCN)o2)c1.Cl,10.7%

row,SMILES,"hERG current change (%, negative = inhibition) at 1uM"
1,CCc1ccc2nc(NC(=O)Cn3cnc4ccccc4c3=O)sc2c1,11.3%
2,O=c1oc(CCCO)cc2ccc(/C=C/c3cccc([N+](=O)[O-])c3)cc12,13%
3,Cc1ccc(N(C(=O)CNC(=O)c2ccco2)C(C(=O)NCC2CCCO2)c2ccccc2)c(C)c1 (stereo not drawn),7.15%
4,Cc1ccc(NS(=O)(=O)c2cccc(C(=O)N3CCCCCCC3)c2)cc1,13.3%
5,Cc1cccc(NC(=S)N2CCN(Cc3ccc4c(c3)OCO4)CC2)c1C,2.54%
6,CCC(CC)=NNC(=O)c1ccccc1OCc1ccc(F)cc1,2.8%
7,O=C(Nc1ccccc1C(=O)O)c1cc(S(=O)(=O)Nc2ccccc2)ccc1Cl,19.5%
8,COc1ccc(NC(=O)CSCC(=O)Nc2nnc(C)s2)cc1,19.8%
9,O=C(Nc1cccc(NC(=O)c2ncn[nH]2)c1)c1cccc(Cl)c1,13%
10,Cc1ccc(NC(=O)CN(C)C(C)C(=O)N2CC(C)CC(C)C2)cc1 (stereo not drawn),9.07%
11,Cc1nn(-c2ccc(N3CCCCC3)nn2)c(C)c1CCC(=O)Nc1ccc(F)c(F)c1,-9.66%
12,Cc1cccc(C)c1NC(=S)Nc1ccccc1C(=O)NCc1ccco1,-3.55%
13,COc1cccc(C(=O)N=c2sc3cc(S(C)(=O)=O)ccc3n2C)c1,19.1%
14,CCO/C=C/C(O)(CNC(=O)COc1ccccc1F)C(F)(F)F (stereo not drawn),19.8%
15,S=C1NC(c2ccccc2)N2C(=S)NC(c3ccccc3)N12 (stereo not drawn),3.38%
16,CCCn1c(NC(=O)c2ccc(C)cc2)nc2ccccc21,-0.02%
17,CCC(=O)c1cc2c(C)cc(=O)oc2c(C)c1OC(C)=O,7.37%
18,COc1cc2c(cc1OC)/C(=C/C#N)NC(C)(C)C2,7.09%
19,O=C(c1cc2cc(Cl)ccc2[nH]1)N1CCN(c2ccc(F)cc2)CC1,22.8%
20,CCCCNC(=O)C(NS(=O)(=O)c1cccc2nsnc12)c1ccccc1 (stereo not drawn),11.2%
21,CC(C)n1cnc2c(Nc3cccc(F)c3)nc(NCCO)nc21,13.6%
22,Cc1cc(OCc2ccccc2)ccc1/C(O)=C1/C(=O)C(=O)N(Cc2cccnc2)C1c1ccncc1 (stereo not drawn),7.48%

row,SMILES,"hERG current change (%, negative = inhibition) at 1uM"
1,COc1ccccc1CCNC1CCC(C)CC1 (stereo not drawn),9.05%
2,COc1ccccc1N1CCN(C(=O)COc2ccc(S(=O)(=O)NC(C)(C)C)cc2)CC1,7.41%
3,Cc1cccc(C(=O)O/N=C/c2ccc(Br)cc2)c1,16.2%
4,CC(C)c1ccc(NC2CCCN(C(=O)c3cc(C(C)C)nc(N)n3)C2)cc1 (stereo not drawn),6.58%
5,NS(=O)(=O)c1ccc(N/N=C/c2cn(-c3ccccc3)nc2-c2cccs2)c([N+](=O)[O-])c1,13.7%
6,COc1ccc(NC(=O)Nc2cc(C)ccc2F)cc1OC,4.91%
7,Cc1ccc(NC(=O)CN(C)C(=O)COC(=O)c2nc3nccc(C)n3n2)cc1,7.92%
8,CCOC(=O)Cn1nnc(-c2ccc([N+](=O)[O-])cc2)n1,10.7%
9,CN(C)S(=O)(=O)N1CCC(Oc2ccc(C(=O)NC3CCCCC3)cc2)CC1,30.9%
10,CCOC(=O)c1ccc(NC(=S)NNC(=O)C2(C)CC2(Cl)Cl)cc1 (stereo not drawn),15.7%
11,COc1ccccc1Nc1n[nH]c(=S)s1,3.99%
12,C/C(=N\NC(=O)CN(c1ccc(C)cc1)S(C)(=O)=O)c1cccs1,8.96%
13,COc1cccc(NC(=O)CN(C)C(=O)c2ccc(NC(=O)CC3SC(N4CCCCC4)=NC3=O)cc2)c1 (stereo not drawn),9.04%
14,Cc1ccc(N2CCN(S(=O)(=O)c3ccc4c(c3)n(C)c(=O)c(=O)n4C)CC2C)cc1 (stereo not drawn),4.38%
15,CCCc1nc2c(C)cc(-c3nc4ccccc4n3C)cc2n1Cc1ccc(-c2ccccc2C(=O)O)cc1,-2.75%
16,COc1cccc2cc(C(=O)C3=C(O)C(=O)N(CCN(C)C)C3c3ccc(F)cc3)oc12 (stereo not drawn),2.45%
17,O=C(O)CCCCC1SCC2NC(=O)NC21 (stereo not drawn),9.86%
18,Cc1[nH]n(-c2ccccc2)c(=O)c1N=Nc1ccc(C#N)cc1,12.1%
19,C=CCc1cccc(/C=N/NC(=O)c2ccccc2OC)c1O,15.6%
20,Cc1nonc1NC(=O)Nc1cccnc1,-3.05%
21,Cc1ccccc1NC(=O)CSc1nnc(-c2ccoc2C)n1CCc1ccccc1,-9.75%

# Source: PMC4336329 (PLoS ONE, 2015)
